# Measured values taken from the supplement of paper PMC9446081.
# The campaign covered roughly 39,000 compounds. About 220 (0.56%) showed activity. The list shows a part of the results.
# System: Escherichia coli K-12 BW25113
# Test: relative growth (OD600 normalised to plate interquartile mean) (fraction); higher = less growth inhibition, active = 0.2 or less
# Conditions: 50 µM; LB; incubation time: overnight (16-24 h)
# 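Further: static incubation at 37 °C against the wild-type strain, values averaged over two biological replicates.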
row,SMILES,relative growth
1,Cc1ccc(S(=O)(=O)Nc2ccc3c(c2)CC(=O)N([C@H](C)CO)C[C@H](C)[C@H](CN(C)S(=O)(=O)c2ccc(F)cc2)O3)cc1,inactive: 1.02
2,C[C@@H]1CCCCO[C@@H](CN(C)S(=O)(=O)c2ccccc2)[C@@H](C)CN([C@@H](C)CO)C(=O)c2cc(NS(C)(=O)=O)ccc2O1,inactive: 1.01
3,CC(C)CC#Cc1ccc2c(c1)O[C@@H](CN(C)S(=O)(=O)c1ccc(F)cc1)[C@H](C)CN([C@@H](C)CO)S2(=O)=O,inactive: 1.03
4,C[C@@H]1CN([C@H](C)CO)C(=O)c2cc(NC(=O)C3CCCCC3)ccc2O[C@@H](C)CCCCO[C@H]1CN(C)C(=O)Nc1ccccc1,inactive: 0.993
5,C[C@@H]1CN([C@H](C)CO)C(=O)c2cccc(NC(=O)Nc3ccc4c(c3)OCO4)c2O[C@H]1CN(C)Cc1ccc(C(=O)Nc2ccccc2N)cc1,inactive: 1.02
6,CC(C)NC(=O)Nc1ccc2c(c1)C(=O)N([C@@H](C)CO)C[C@H](C)[C@@H](CN(C)Cc1ccc(C(F)(F)F)cc1)OCCCC[C@H](C)O2,inactive: 1.04
7,C[C@H]1CN([C@@H](C)CO)C(=O)Cc2cc(NC(=O)Nc3cccc4ccccc34)ccc2O[C@H]1CN(C)Cc1ccc(C(=O)O)cc1,inactive: 1.02
8,N=C(N)NCCC[C@@H](NC(=O)[C@@H](N)Cc1ccc(O)cc1)C(=O)O,inactive: 0.971
9,COc1cccc(C)c1NC(=O)O[C@H]1[C@H](OC(=O)Nc2ccccc2-c2ccccc2)[C@H](OC(=O)Nc2ccccc2-c2ccccc2)[C@@H](OC)O[C@@H]1CO,inactive: 1.04
10,C[C@@H]1CCCCO[C@@H](CN(C)Cc2ccc(C(F)(F)F)cc2)[C@@H](C)CN([C@@H](C)CO)C(=O)c2cc(NC(=O)NC3CCCCC3)ccc2O1,inactive: 1.01
11,COCCC(=O)N1CCC2(CC1)COC2,inactive: 0.998
12,COCc1nc(C)c(CN)s1,inactive: 0.99
13,C[C@@H]1CN([C@H](C)CO)C(=O)c2cc(NS(=O)(=O)c3ccccc3)ccc2O[C@@H](C)CCCCO[C@@H]1CN(C)Cc1ccc(C(F)(F)F)cc1,inactive: 1.01
14,C[C@@H]1CN([C@H](C)CO)C(=O)c2cc(NC(=O)Nc3cccc4ccccc34)ccc2O[C@H]1CN(C)Cc1ccncc1,inactive: 0.968
15,C[C@@H]1CN([C@H](C)CO)C(=O)CCCn2cc(nn2)CO[C@H]1CN(C)S(=O)(=O)c1ccc(-n2cccn2)cc1,inactive: 0.999
16,C[C@@H]1[C@@H]([Si](C)(C)F)[C@H](CCO)O[C@@]12C(=O)N(Cc1cccc(N3C(=O)c4cccc5cccc3c45)c1)c1ccccc12,inactive: 1.01
17,C[C@H]1CN([C@@H](C)CO)C(=O)c2cc(NC(=O)Cn3cnnn3)ccc2O[C@@H]1CN(C)C(=O)Nc1cccc2ccccc12,inactive: 1
18,COC(=O)[C@H](Cc1ccccc1)N1CC2=CCCC=C[C@H]2[C@@H]1[C@@H](O)CCn1cc(CCC(=O)NO)nn1,inactive: 1
19,C[C@H](CO)N1C[C@H](C)[C@H](CN(C)C(=O)Nc2ccc3c(c2)OCO3)Oc2c(NS(C)(=O)=O)cccc2C1=O,inactive: 1.01
20,Cc1noc(C)c1NC(=O)N(C)C[C@@H]1Oc2ccc(NS(=O)(=O)c3c(C)noc3C)cc2C(=O)N([C@@H](C)CO)C[C@H]1C,inactive: 0.988

row,SMILES,relative growth
1,Cc1noc(C)c1S(=O)(=O)N(C)C[C@H]1OCCCC[C@@H](C)Oc2ccc(NC(=O)Nc3ccc(F)cc3)cc2C(=O)N([C@@H](C)CO)C[C@H]1C,inactive: 1.01
2,Cc1ccc(S(=O)(=O)N(C)C[C@@H]2OCCCC[C@H](C)Oc3ccc(NC(=O)Nc4c(C)noc4C)cc3C(=O)N([C@H](C)CO)C[C@H]2C)cc1,inactive: 1.02
3,O=C(O)/C=C/C(=O)Nc1nccs1,inactive: 0.984
4,COCC(=O)N1C[C@H](C)[C@@H](OC)CN(C)C(=O)c2cc(NC(=O)c3ccc(OC)cc3)ccc2OC[C@H]1C,inactive: 0.969
5,O=C([O-])C1=C(CSc2nnnn2CS(=O)(=O)[O-])CSC2C(NC(=O)C(O)c3ccccc3)C(=O)N12.[Na+].[Na+] (stereo not given),active: 0.044
6,COc1ccc(S(=O)(=O)N(C)C[C@H]2Oc3ccc(NS(=O)(=O)c4ccc(F)cc4)cc3C(=O)N([C@@H](C)CO)C[C@H]2C)cc1,inactive: 1.01
7,COCC#Cc1ccc([C@@H]2[C@@H](CO)N3C(=O)CN(C(=O)C4CCOCC4)C[C@H]23)cc1,inactive: 0.985
8,C[C@H]1CCCN(S(=O)(=O)CCN)C1,inactive: 0.998
9,Nc1cc(=O)nc(N)[nH]1,inactive: 1.04
10,O=c1c2c(c1=O)N(CCP(=O)(O)O)CCCN2,inactive: 0.989
11,CCC1C=C2C(=O)OC(=O)C2CC2=C(C(=O)OC2=O)C(OC(C)=O)C1CC (stereo not given),inactive: 1.06
12,O=C(CCCCCCC(=O)Nc1ccc([C@H]2C[C@H](c3ccccc3)O[C@H](c3ccc(Oc4ccccc4)cc3)O2)cc1)NO,inactive: 1.01
13,NCCCC(N)CC(=O)NC1CNC(=O)C(C2CC(O)NC(N)=N2)NC(=O)C(=CNC(N)=O)NC(=O)C(CO)NC(=O)C(CO)NC1=O.O=S(=O)(O)O (stereo not given),inactive: 0.993
14,COc1ccc(S(=O)(=O)Nc2cccc3c2O[C@H](CN(C)S(=O)(=O)c2ccccc2)[C@@H](C)CN([C@@H](C)CO)C3=O)cc1,inactive: 0.991
15,C[C@H]1CN([C@@H](C)CO)C(=O)c2cc(C#Cc3ccc(F)cc3)cnc2O[C@@H]1CN(C)Cc1ccccn1,inactive: 0.971
16,C[C@@H](O)C#Cc1ccc2c(c1)O[C@@H](CN(C)C(=O)C1CCCCC1)[C@@H](C)CN([C@@H](C)CO)S2(=O)=O,inactive: 0.995
17,Cc1noc(C)c1S(=O)(=O)Nc1ccc2c(c1)C(=O)N([C@@H](C)CO)C[C@H](C)[C@H](CN(C)Cc1ccccc1)O2,inactive: 1.01
18,COc1cccc(S(=O)(=O)N2C[C@H](O)COC[C@@H]3O[C@H](CC(=O)NCCCN4CCOCC4)CC[C@H]32)c1,inactive: 0.916
19,C[C@@H]1CCCCO[C@@H](CN(C)Cc2ccc(Cl)c(Cl)c2)[C@@H](C)CN([C@H](C)CO)C(=O)c2cc(NC(=O)CCC(F)(F)F)ccc2O1,inactive: 0.896
20,Cc1ccc(C(=CCN2CCCC2)c2ccccn2)cc1.Cl,inactive: 0.878

row,SMILES,relative growth
1,CC(=O)N1CCN(C(=O)C(=O)NC[C@H](c2ccc(N(C)C)cc2)N2CCOCC2)CC1,inactive: 0.989
2,CC(=O)N(C)C[C@H]1Oc2ncc(C#CC(C)(C)O)cc2C(=O)N([C@H](C)CO)C[C@H]1C,inactive: 1
3,C[C@H]1CN([C@@H](C)CO)C(=O)c2cc(-c3cccnc3)cnc2O[C@H]1CN(C)Cc1ccc(Oc2ccccc2)cc1,inactive: 1.03
4,C[C@@H]1CN([C@H](C)CO)S(=O)(=O)c2ccc(-c3ccccc3F)cc2O[C@@H]1CN(C)S(C)(=O)=O,inactive: 1.03
5,O=C(C[C@H]1C=C[C@@H](NC(=O)c2ccc(F)cc2)[C@H](CO)O1)NCc1ccncn1,inactive: 0.996
6,O=C1O[C@@H](c2ccccc2)[C@@H](c2ccccc2)N2[C@@H](c3ccc(OCCO)cc3)[C@]3(C(=O)Nc4ccc(C#CC5(O)CCCCCC5)cc43)[C@@H](C(=O)N3CCCCCCC3)[C@H]12,inactive: 1.05
7,CC(C)NC(=O)Nc1cccc2c1O[C@H](CN(C)C(=O)NC1CCCCC1)[C@@H](C)CN([C@@H](C)CO)C2=O,inactive: 0.969
8,CC(C)NC(=O)Nc1ccc2c(c1)CC(=O)N([C@@H](C)CO)C[C@@H](C)[C@H](CN(C)S(=O)(=O)c1ccccc1)O2,inactive: 1.01
9,O=C(C[C@@H]1CC[C@H]2[C@@H](COC[C@H](O)CN2S(=O)(=O)c2cccc(F)c2)O1)NCc1ccncn1,inactive: 1.03
10,C[C@@H]1CCCCO[C@H](CN(C)Cc2ccc(Cl)c(Cl)c2)[C@@H](C)CN([C@H](C)CO)C(=O)c2cc(NC(=O)c3ccncc3)ccc2O1,inactive: 1.03
11,C[C@@H]1CCCCO[C@@H](CN(C)C(=O)Nc2cccc3ccccc23)[C@@H](C)CN([C@H](C)CO)C(=O)c2cc(NS(=O)(=O)c3ccccc3)ccc2O1,inactive: 1.01
12,CNC[C@H]1OCCCC[C@H](C)Oc2ccc(NS(=O)(=O)c3c(C)noc3C)cc2C(=O)N([C@@H](C)CO)C[C@@H]1C,inactive: 0.989
13,C[C@H]1CCCCO[C@H](CN(C)C(=O)Nc2cccc3ccccc23)[C@@H](C)CN([C@@H](C)CO)C(=O)c2cc(NS(=O)(=O)c3ccc(Cl)cc3)ccc2O1,inactive: 1.03
14,CC1(C)CN(C(=O)Cn2nccn2)C[C@]1(C)O,inactive: 0.983
15,C[C@@H]1CCCCO[C@H](CN(C)C(=O)C2CCCCC2)[C@@H](C)CN([C@H](C)CO)C(=O)c2cc(NC(=O)Nc3cccc4ccccc34)ccc2O1,inactive: 0.924
16,C=CC[C@H](CC(=O)NCCO)C(=O)N[C@H](COC(=O)[C@@H](CC=C)CC(=O)OC(C)(C)C)Cc1c[nH]c2ccccc12,inactive: 0.998
17,C[C@H]1CN([C@@H](C)CO)C(=O)c2c(c3ccccc3n2C)-c2ccccc2CO[C@@H]1CN(C)C(=O)Nc1cccc(F)c1,inactive: 1.01
18,Cc1noc(C)c1S(=O)(=O)N(C)C[C@H]1Oc2ccc(NC(=O)Nc3ccccc3)cc2CC(=O)N([C@H](C)CO)C[C@H]1C,inactive: 1.03
19,C[C@H]1CN([C@@H](C)CO)C(=O)Cc2cc(NC(=O)c3ccncc3)ccc2O[C@@H]1CN(C)S(C)(=O)=O,inactive: 1.01
20,C[C@H]1CN([C@@H](C)CO)C(=O)c2cccc(NC(=O)c3cnccn3)c2O[C@H]1CN(C)C(=O)NC1CCCCC1,inactive: 1.02
